# Results published in PubChem BioAssay AID1240 (Sanford-Burnham Center for Chemical Genomics, 2008).
# The campaign covered roughly 50,000 compounds. About 800 (1.6%) showed an effect of 50% or more. Some of the results follow.
# Target: Bcl-2-like protein 10 (Homo sapiens) (UniProt Q9HD36)
# Assay: Phenotype converters, Bcl-B/TR3 peptide binding displacement, primary biochemical FP (AID 1240);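 also: 0% = Bcl-B with tracer peptide and DMSO and 100% = tracer peptide lacking Bcl-B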
# Details: GST-Bcl-B / FITC-TR3 peptide fluorescence polarization; stronger effect = higher value; compound at 3.75 mg/L
# Sequence of UniProt Q9HD36 (Q9HD36 whole entry, looked up): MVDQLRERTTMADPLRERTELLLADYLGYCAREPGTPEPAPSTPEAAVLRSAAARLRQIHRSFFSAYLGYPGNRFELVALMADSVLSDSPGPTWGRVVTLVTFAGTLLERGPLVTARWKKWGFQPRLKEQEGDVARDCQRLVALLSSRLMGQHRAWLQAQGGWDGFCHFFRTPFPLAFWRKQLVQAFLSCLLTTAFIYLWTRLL
row,Structure (SMILES),displacement
1,O=C(O)c1ccccc1-c1ccccc1C(=O)Nc1nc(-c2ccccc2)cs1,24.8%
2,O=C(N/N=C/c1cc(Br)ccc1OCc1ccccc1)C(O)(c1ccccc1)c1ccccc1,-5.9%
3,O=C(NC(=S)Nc1cccc2ccccc12)c1cc2ccccc2oc1=O,-11.1%
4,O/N=C/c1cn(-c2ccccc2)nc1-c1ccccc1,10%
5,COc1cc(NC(=O)c2cc([N+](=O)[O-])ccc2N2CCCCC2)c2ncccc2c1,13.5%
6,CCOC(=O)c1c(N)c(C#N)c(C)n1-c1ccc(Cl)cc1,-3.5%
7,CCOC(=O)c1c(C)oc2c(CN(C)C)c(Br)c(OC)c(O)c12,-8.3%
8,O=C(N/N=C/C(Br)=C/c1ccccc1)C(O)c1ccccc1 (stereo not given),6.3%
9,Cc1ccc(S(=O)(=O)N2CCOCC2)cc1C,2.3%
10,Cc1ccccc1NC(=O)CN(c1ccc(Br)cc1)S(C)(=O)=O,1.7%
11,O=C1CCCCC1C1(O)C(=O)Nc2ccc(Br)cc21 (stereo not given),-13.3%
12,COc1ccc(/C=N/n2c(C)nnc2C)c(OC)c1OC,12.3%
13,Cc1ccc2c(Cl)c(C(=O)NCc3ccc(Cl)cc3)sc2c1,4%
14,O=C(CCC(NC(=O)c1ccccc1)C(=O)NCCCO)OCc1ccccc1 (stereo not given),10.9%
15,Clc1ccc(-c2nc(NCCN3CCOCC3)c3ccccc3n2)cc1,-1.9%
16,Cc1cccc(-n2c(C)cc(/C=C3/NC(=O)NC3=O)c2C)c1,20.6%
17,Cc1cc(C)c(NC(=O)COc2cc(C)c(Cl)c(C)c2)c(C)c1,8.5%
18,NC1=NC2(CCCCC2)N=C(Nc2ccc(F)cc2F)N1,-7.4%
19,C=CCC1(NCc2ccco2)CCN(CC)CC1,10.9%
20,CCOC(=O)COc1ccc(/C=C2\C(=O)NC(=O)N(c3cc(C)cc(C)c3)C2=O)cc1OC,-5.9%
21,CC(C)(C)C(=O)Nc1cccc(C(=O)Nc2ccc(O)cc2)c1,-6.9%
22,COc1cc(O)c(NC(C)=O)c2nonc12,5.1%

row,Structure (SMILES),displacement
1,C=CCN1C(=O)/C(=c2\sc3n(c2=O)C(c2ccc(OC)c(OC)c2)C(C(=O)OC)=C(C)N=3)c2ccccc21 (stereo not given),7.1%
2,NC(=O)c1ccc(NC(=O)Cc2ccc(Cl)cc2)cc1,-1%
3,COc1ccccc1C(=O)Nc1cccnc1,4.2%
4,CCOc1cc(/C=c2\sc3nc4ccccc4n3c2=O)cc(Cl)c1OCCOc1ccccc1C,12.4%
5,CCOc1ccccc1NC(=O)c1cc([N+](=O)[O-])ccc1N1CCN(Cc2ccccc2)CC1,11.8%
6,CCO/C(C)=C1\C(=O)Nc2ccccc21,11%
7,O=C(Nc1ccccc1S)c1cc2c(ccc3ccccc32)oc1=O,-4.6%
8,COc1ccc(/C=C/C(=O)Nc2ccc(C)c([N+](=O)[O-])c2)cc1OC,-7%
9,C/C(=N/NC(=O)c1ccccc1C)c1ccc(NC(=O)C(F)(F)F)cc1,-6.1%
10,Cc1ccc(-c2nc3cc(NC(=S)NC(=O)c4ccco4)ccc3o2)cc1,10.2%
11,CCOC(=O)N(CCCC(=O)OC)CP(=O)(OCC)OCC,15%
12,CCOC(=O)C1=C(C)N=c2s/c(=C\c3ccc(N(C)C)cc3)c(=O)n2C1c1cccc(OC)c1 (stereo not given),-53.2%
13,Cc1ccccc1NC(=O)c1ccc(NC(=O)c2ccco2)cc1,0.3%
14,Cc1cccc(OCC(=O)O/N=C(\N)Cc2cccs2)c1,-1%
15,CN1CCN(CCCNc2c([N+](=O)[O-])c(=O)sc3ccccc23)CC1,-14.5%
16,CC(C)(C)OC(=O)c1ccc([N+](=O)[O-])cc1,13.8%
17,O=c1c2c3c(sc2ncn1/N=C/c1cccs1)CCCC3,2.9%
18,C=CCc1cccc(/C=N/c2nc3ccccc3n2CC)c1O,5.1%
19,Cc1cc(=O)oc2cc(OC(=O)c3ccc([N+](=O)[O-])cc3Cl)ccc12,7.3%
20,CN(CCO)CCOCCOc1ccc(C(C)(C)C)cc1,15.9%
21,CC(C)(C)NC(=O)c1cc2nc(-c3ccccc3)cc(C(F)(F)F)n2n1,13%
22,C/C=C/C=C(/NC(=O)c1ccccc1)C(=O)OC,10.5%

row,Structure (SMILES),displacement
1,COc1ccc(Br)cc1/C=C/C(=O)Nc1cccc(C(F)(F)F)c1,1.6%
2,NC(=O)c1cccc2c1-c1ccccc1C2,4.6%
3,COCc1cc(CN2CCC(C)CC2)c(O)c2ncccc12,12.2%
4,CCOC(=O)c1cccc(NC(=O)c2c(-c3ccccc3Cl)noc2C)c1,2.5%
5,O=C(Nc1ccccc1)Nc1nnc(SCc2ccc(F)cc2)s1,13.5%
6,O=C(N/N=C\C=C\c1ccco1)c1ccc(Br)cc1,-1.2%
7,COc1ccc(CCNC(=O)c2ccc(N(Cc3ccc(Cl)cc3)S(C)(=O)=O)cc2)cc1OC,13.7%
8,COc1ccc(OC)c(NC(=O)COc2ccccc2C(C)(C)C)c1,-6.8%
9,Cc1ccccc1/C=N/N1CCN(Cc2ccc(Cl)cc2)CC1,-4.1%
10,Cc1cc(=O)oc2cc3c(cc12)OCCN3,13.2%
11,Cc1ccc2c(c1)-c1c(ssc1=S)C(C)(C)N2C(=O)Cc1ccccc1,3%
12,CCCC(C)C1C(C#N)=C(N)Oc2cc(N)ccc21 (stereo not given),-12.4%
13,CC1(c2ccccc2)CC(C)(C)N(C(=O)CN2CCOCC2)c2ccccc21 (stereo not given),-10.7%
14,O=C(c1cccc(F)c1)c1ccc2c(c1)CCCO2,-0.6%
15,O=C1C(Cl)=CC(=NS(=O)(=O)c2ccccc2)C=C1Br,24%
16,CC(=O)N/C(=N/c1nc(C)cc(C)n1)Nc1ccc(C)c(Cl)c1,-6.7%
17,CC(=O)CCc1c(C)[nH]c2ccc(Br)cc2c1=O,-1.4%
18,Cc1ccc(OCCOCCN2CCCC2)cc1,7.4%
19,O=C1C(Cl)=C(Nc2ccc(F)cc2)C(=O)N1c1ccccc1Cl,1.3%
20,CCN(CC)c1ccc(N2C(=O)/C(=C/c3ccc(C(=O)OC)cc3)SC2=S)cc1,-10.6%
21,CN1/C(=C\C(=O)Nc2ccc(Br)cc2)c2ccccc2CC1(C)C,-0.7%
22,CC1CCN(C2=NC(=O)/C(=C/c3ccc(N(C)C)cc3)S2)CC1,157%

row,Structure (SMILES),displacement
1,C=CCOc1ccc(/C=C2\SC(=S)N(C)C2=O)cc1OC,11.8%
2,COc1ccc(-c2nc3cc(NC(=O)c4ccco4)ccc3o2)cc1Cl,-13.9%
3,CCOC(=O)c1c(CSc2ccccc2)n(C)c2cc(Br)c(OC)c(O)c12,-4.3%
4,O=C(CSc1nnc2c(n1)[nH]c1ccccc12)OCN1C(=O)c2ccccc2C1=O,15.2%
5,Cc1ccc(-c2nn(-c3cc(N4CCN(C)CC4)ccc3[N+](=O)[O-])c(=O)c3ccccc23)cc1C,-5.5%
6,CCOc1cc(C2C(C(=O)OC)=C(C)NC3=C2C(=O)c2ccccc23)ccc1OCc1cccc(F)c1 (stereo not given),14.5%
7,CC(=O)CCc1oc2ccc(C)cc2c1-c1ccccc1,-5.4%
8,Cc1cccc(N2C(=O)/C(=C/c3ccccc3C(=O)O)SC2=S)c1C,5.2%
9,CC1(C)Cc2ccccc2C(NN=C2CCCC2)=N1,-3.6%
10,C=CCSc1nc2c(c(-c3ccc(Br)cc3)c1C#N)C(=O)CC(C)(C)C2,-7.9%
11,COc1ccc(-c2cc(CC(=O)c3ccccc3)cc(-c3ccc(OC)cc3)n2)cc1,7.7%
12,Cc1cc(C(=O)N/N=C/C=C/c2ccccc2)n[nH]1,-7.4%
13,O=C(COc1ccc(Cl)cc1Cl)Oc1ccccc1,-9.6%
14,Cc1ccc(NC(=O)c2ccco2)cc1Br,2.2%
15,CCN(CC)c1ccc(NC(=O)c2ccccc2C(F)(F)F)cc1,-4.4%
16,Cc1cc(Cl)c2cc(C(=O)O)ccc2n1,17.4%
17,CCOC(=O)c1c(C)sc(Sc2ccc(Cl)cc2[N+](=O)[O-])c1OC(C)=O,-10.4%
18,O=C1OC(c2ccc(Br)cc2)=C/C1=C/c1ccc(-c2ccccc2[N+](=O)[O-])o1,-4.7%
19,O=C(Nc1ccc(OC(F)(F)F)cc1)c1cccc(OCc2ccccc2)c1,8.8%
20,CCNC(=O)CP(=O)(c1ccccc1)c1ccccc1,-4.8%
21,CCOC(=O)c1c(NC(=O)Cc2cccs2)sc(C)c1C,-4.1%
22,O=S(=O)(N=Nc1c(O)[nH]c2ccccc12)c1ccc2ccccc2c1,-3.7%

row,Structure (SMILES),displacement
1,CCN(CC)C(=O)Cn1c(O)c(N=NC(=O)c2ccc(C(C)(C)C)cc2)c2ccccc21,17.9%
2,Cc1cccc(C2OC3(C(=O)c4ccccc4C3=O)C(c3ccc(Br)cc3)C23C(=O)c2ccccc2C3=O)c1 (stereo not given),14.1%
3,COc1ccc(C(=O)Nc2ccc(C)cc2[N+](=O)[O-])cc1Cl,-1.6%
4,c1ccc(CCSc2nc3ccccc3[nH]2)cc1,6.2%
5,Cc1ccc(S(=O)(=O)/N=C(\Nc2nc(C)cc(C)n2)Nc2ccccc2C)cc1,-2.3%
6,O=C(/C=C/c1cccc([N+](=O)[O-])c1)Nc1ccc(-c2nc3ncccc3o2)cc1,45.3%
7,CC(C)N=C(NS(=O)(=O)c1ccccc1)c1ccccc1,11.8%
8,Cc1cccc(NC(=O)C2C(c3ccccc3)C2(Cl)Cl)c1C (stereo not given),-0.1%
9,COC(=O)c1ccccc1NC(=O)c1cc2nc(-c3cccs3)cc(C(F)(F)F)n2n1,4.4%
10,CSc1nc(-c2ccccc2)nc2[nH]c(-c3ccccc3)cc(=O)c12,44.4%
11,CC1=C([N+](=O)[O-])C(c2ccccc2Cl)NC(=O)N1C (stereo not given),2.3%
12,CC(C)(C)NC(=O)c1cccc(C(=O)Nc2cccc(O)c2)c1,-3.2%
13,CCOc1ccc2nc(SCC(=O)NCC(=O)c3ccccc3)sc2c1,-10.9%
14,COC(=O)[C@]1(C)C=C2C3=CC(=O)C4[C@@]5(C)CCC(O)C(C)(C)C5CC[C@@]4(C)[C@]3(C)CC[C@@]2(C)CC1 (stereo not given in full),-6%
15,Cc1ccccc1C(=O)NNC(=O)c1ccc([N+](=O)[O-])cc1,-13.4%
16,COc1ccccc1/C=N/NC(=O)c1cc(C23CC4CC(CC(C4)C2)C3)[nH]n1,2.2%
17,Cc1cc(C)c(C)c(OCCCCn2ccnc2)c1,-9.1%
18,Cc1ccc(C(=O)Nc2cc(-c3nc4ncccc4o3)ccc2C)cc1,37.2%
19,Cc1ccc(C(=O)N(Cc2ccccc2)c2ccccc2)cc1,-4%
20,CCOC(=O)C1CCN(S(=O)(=O)c2ccc(NC(C)=O)cc2)CC1,3.2%
21,O=C(O)CC(Cc1ccc(Br)cc1)C(=O)O (stereo not given),-2.5%
22,COc1cccc(OCCNS(=O)(=O)c2ccc3ccccc3c2)c1,12.2%
